± gives the standard deviation of the averaged measurements. In all, about 33,000 sequences were measured (“E-score (dimensionless, -0.5 to 0.5)”: median about -0.049, highest 2% from about 0.37 on). Some of the results follow.
System: T1, PmTbr T-box DNA-binding domain (GST fusion)
T1 sequence: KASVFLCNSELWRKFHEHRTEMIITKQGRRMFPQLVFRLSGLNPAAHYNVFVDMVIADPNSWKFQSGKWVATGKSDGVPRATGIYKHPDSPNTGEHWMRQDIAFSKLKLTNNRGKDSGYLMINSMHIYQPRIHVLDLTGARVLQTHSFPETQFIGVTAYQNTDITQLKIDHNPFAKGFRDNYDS
Assay: PBM E-score of 8-mer (E-score (dimensionless, -0.5 to 0.5)); Tbr is Tbrain of the sea star Patiria miniata (Pm) or the sea urchin Strongylocentrotus purpuratus (Sp); higher = stronger binding preference; most listed sequences are background and not binding sites
Details: the construct has about 5 more residues each side
Method in brief: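 Universal Agilent oligonucleotide arrays, made double-stranded by primer extension, were incubated with 200 nM GST-fused Tbr T-box DNA-binding domain in PBS (pH 7.5). The protein was expressed in BL21 E. coli at 20 °C and purified by glutathione affinity chromatography. After scanning and quantification, the Universal PBM Analysis Suite assigned an enrichment E-score to each ungapped 8-mer, averaged over duplicate arrays.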

Sequence | PBM E-score of 8-mer
GTACGCAC | 0.0886 ± 0.018
ACCGGTCA | -0.113 ± 0.002
ATCGCCCG | 0.13 ± 0.044
CCAGAACG | -0.0252 ± 0.013
AGCAGGCT | -0.041 ± 0.024
CTGACTTA | -0.296 ± 0.012
ACTTCTCT | -0.00718 ± 0.036
AATTGCCC | 0.0298 ± 0.0098
CTTACATC | -0.0211 ± 0.062
GAGACGGA | -0.116 ± 0.046
TACCGTGA | -0.00931 ± 0.003
CTTGAGTC | -0.262 ± 0.014
ATAGAGCG | -0.0757 ± 0.0015
ATGGTGCA | 0.0403 ± 0.03
ACTGTCAA | 0.162 ± 0.028
GACGGTAC | -0.0822 ± 0.11
ATCACATA | 0.297 ± 0.028
CACCATGA | 0.2123 ± 0.0012
CAGATCTA | -0.124 ± 0.05
CACGGGTC | 0.0871 ± 0.051
CGCCCCTC | -0.0104 ± 0.002
GGATTCCA | -0.0701 ± 0.079
GATGAGCC | -0.212 ± 0.031
GGCTTCCA | -0.273 ± 0.059
ATGATAAC | 0.0197 ± 0.036

Sequence | PBM E-score of 8-mer
AGGTATGA | 0.029 ± 0.038
ATGCAACG | -0.0217 ± 0.018
ACAACGTC | 0.0762 ± 0.019
CGCGAACA | 0.328 ± 0.007
ATGACCGC | -0.328 ± 0.058
CTTTCCGA | -0.0405 ± 0.025
ACTGATCA | -0.104 ± 0.025
AATTGCTC | 0.0908 ± 0.0015
GCCCGAAA | 0.045 ± 0.0033
ATAGATTA | -0.119 ± 0.067
CCGCTTTA | -0.0206 ± 0.08
AGACGCTG | -0.078 ± 0.052
GGGTGTTA | 0.4737 ± 0.00077
CATCGCAG | 0.0526 ± 0.063
GCCGTCCA | -0.0964 ± 0.033
CCCTAGCG | -0.134 ± 0.076
GACGGAGC | -0.0984 ± 0.018
ACAATCAA | 0.00085 ± 0.022
AACGACAA | -0.0107 ± 0.026
AAATGATG | -0.138 ± 0.13
AGATTATC | 0.114 ± 0.038
CACATTCG | 0.333 ± 0.026
AGTCCACG | 0.00505 ± 0.057
ATTACCGA | -0.0683 ± 0.02
ATCGGTGA | 0.0545 ± 0.041

Sequence | PBM E-score of 8-mer
AGCGAAGG | 0.0352 ± 0.017
CCGTTATC | 0.0968 ± 0.011
CTCCCTAA | -0.146 ± 0.072
AATGCTCA | -0.175 ± 0.04
ACGCACGG | -0.00685 ± 0.008
GACTCATC | -0.298 ± 0.013
CAGGTGCC | 0.4 ± 0.0072
ATTCGGTA | -0.266 ± 0.025
AGATGGAC | -0.281 ± 0.02
GTCGATAA | 0.232 ± 0.025
CAACTTGA | 0.112 ± 0.01
ATGGGGGA | -0.23 ± 0.018
AAAGAAGT | 0.0456 ± 0.028
ACTGAGCA | -0.203 ± 0.039
AACGAATT | 0.0199 ± 0.012
GAAGATTA | -0.00178 ± 0.036
TCATCACA | 0.356 ± 0.025
ACACAGCT | 0.0986 ± 0.0019
TAGGTGCA | 0.22 ± 0.024
CCAACAAA | 0.0315 ± 0.043
GAAGAACA | -0.24439 ± 4.9e-05
ACAGGAAG | -0.0347 ± 0.064
AAACCTAA | -0.0751 ± 0.036
GCTAACCC | 0.00156 ± 0.0032
CCCAGCAA | -0.00337 ± 0.019

Sequence | PBM E-score of 8-mer
GTCAAGGA | -0.13 ± 0.032
CGAGAGGA | 0.0951 ± 0.0089
ATAGCTAG | -0.0742 ± 0.12
CGACGGTA | -0.0648 ± 0.0062
CATTGCAG | -0.0623 ± 0.12
AGTTGACC | -0.231 ± 0.009
CCAGAGAC | 0.00236 ± 0.015
GATTTCTA | 0.00863 ± 0.024
ACGAATGG | 0.0417 ± 0.027
AATGCGCT | -0.198 ± 0.051
CGCAACCA | -0.0188 ± 0.013
CAACGCTA | 0.102 ± 0.0072
CTTTGGGC | -0.26 ± 0.11
GATGTAGA | -0.24 ± 0.033
ATTCGGAC | -0.273 ± 0.039
GGCACCAA | 0.231 ± 0.024
ATCGGTCG | -0.0188 ± 0.049
ACTAATAT | -0.123 ± 0.059
AACGCAAC | -0.0356 ± 0.018
AAAGCTCG | -0.229 ± 0.069
GTAAATGA | -0.198 ± 0.098
GGTCTACA | -0.0999 ± 0.022
AATTACAT | -0.0447 ± 0.052
CGGGACAA | -0.245 ± 0.026
ACATGAAA | -0.0772 ± 0.04

Sequence | PBM E-score of 8-mer
CATATGGC | -0.227 ± 0.041
CAGATGGC | -0.118 ± 0.0089
GGTCACTA | 0.0131 ± 0.07
GTTGGTGA | 0.0811 ± 0.016
ATTTGAGG | -0.118 ± 0.082
CAGGGAAC | -0.0935 ± 0.11
AATACGCT | -0.0344 ± 0.027
AATTCAGT | -0.0033 ± 0.047
AAGAACCA | -0.148 ± 0.0063
AAATGTGC | 0.206 ± 0.049
GGCTCCGA | -0.171 ± 0.017
TGCGACCA | 0.189 ± 0.0079
CGTGCAGA | -0.168 ± 0.075
CCGTGTGA | 0.335 ± 0.015
AATTAAGG | -0.152 ± 0.064
CATTCGAG | -0.183 ± 0.021
TCTCGGAA | -0.243 ± 0.017
AGCCAAAG | -0.273 ± 0.029
AGCGTGCG | 0.249 ± 0.034
CCATATAA | -0.138 ± 0.043
CCGCCCTA | -0.196 ± 0.037
AATACGAA | -0.143 ± 0.041
CATTTAGC | 0.16 ± 0.044
GTAGAAGA | -0.277 ± 0.034
CACAACCC | 0.111 ± 0.059

Sequence | PBM E-score of 8-mer
GAAGAGAC | -0.282 ± 0.024
AACAGCTA | 0.241 ± 0.04
CACATAAG | 0.174 ± 0.033
GCAAAGGC | -0.146 ± 0.0076
ATTAGAAA | -0.168 ± 0.049
CACCGGGA | 0.117 ± 0.012
AGTATACT | -0.169 ± 0.094
AGCCAACT | -0.15 ± 0.0077
GAGCGTAA | -0.301 ± 0.041
ACGCCGAT | -0.00989 ± 0.039
GGAAGACC | -0.0885 ± 0.028
AACTGATT | -0.2812 ± 0.0021
GACGAGTC | -0.109 ± 0.073
CCGTTACG | -0.125 ± 0.066
AGCGTAAC | -0.0296 ± 0.0038
AAAGTTGG | 0.00902 ± 0.056
AAAATGAT | -0.0806 ± 0.056
TAATGATA | -0.13 ± 0.067
GGTGCCAC | 0.398 ± 0.015
CGCTGCGA | 0.121 ± 0.0033
CTTTCCCA | 0.0554 ± 0.092
ACGCTCTA | -0.124 ± 0.013
CTCCGTCA | 0.0554 ± 0.069
AGTGGGTC | -0.206 ± 0.021
AGCGCAAG | -0.0939 ± 0.037

Sequence | PBM E-score of 8-mer
CCTGGCCC | -0.123 ± 0.027
CTCAATCA | -0.02664 ± 0.00021
AATCTGCT | 0.0322 ± 0.063
AGGTTGCC | -0.0406 ± 0.058
AGGCACCT | 0.23 ± 0.025
CTAAGTAA | -0.198 ± 0.058
ACGTAACG | -0.0182 ± 0.018
GACCGTGA | 0.118 ± 0.025
AAAGCAAA | 0.0181 ± 0.017
CACCCATC | 0.201 ± 0.011
AAACAGGT | 0.0709 ± 0.028
CAATTAAG | -0.0593 ± 0.055
CTGTGGCC | -0.178 ± 0.036
AGCTGTTC | 0.0464 ± 0.026
AATCTCCC | -0.0572 ± 0.13
AAGTTCAA | 0.0328 ± 0.073
TCAACTCA | -0.0373 ± 0.048
GAGCCAAA | -0.0529 ± 0.1
AATCAGGT | 0.114 ± 0.033
AGCTACCA | -1e-05 ± 0.057
CTATAAAG | -0.053205 ± 2.1e-05
GATTTGCC | -0.00123 ± 0.046

Reference: the supplement of paper PMC4166925
